Results are given in words; binding and its absence hold for the method and conditions named. Some entries that bind do so weakly or less than the wild type. For part of these data: Tags and fused reporters may be left off the sequences shown. Values belong to the molecule of their own block, whether it stands above or below them.
Columns and labels:
[1] = target: T1, Strep-REC114^1–159 (mouse) (UniProt Q9CWH4); assay: SEC; supernatants of separately expressed Strep-REC114 1-159 and His-MBP-ANKRD31 1808-1857 mixed; complex purified by affinity chromatography and Superdex 200 gel filtration
T1 sequence: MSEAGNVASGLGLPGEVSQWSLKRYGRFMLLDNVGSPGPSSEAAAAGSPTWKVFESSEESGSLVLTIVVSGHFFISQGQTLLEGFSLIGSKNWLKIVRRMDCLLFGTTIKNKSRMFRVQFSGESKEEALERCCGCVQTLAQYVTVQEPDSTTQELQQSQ

The chains behind the UniProt entries cited, without tags or fusion partners. Residues count along the entry.
UniProt A0A140LI88, residues 1808-1857: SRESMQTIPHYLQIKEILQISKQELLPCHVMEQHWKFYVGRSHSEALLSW

[2] = target: T2, REC114, full length (yeast two-hybrid fusion) (mouse) (UniProt Q9CWH4); assay: two-hybrid; Gal4 DNA-binding domain (pAS2-derived) and activation domain (pGAD-derived) fusions, diploids of AH109 and Y187; growth on medium lacking leucine, tryptophane and histidine; 30 °C, 3 days
T2 sequence: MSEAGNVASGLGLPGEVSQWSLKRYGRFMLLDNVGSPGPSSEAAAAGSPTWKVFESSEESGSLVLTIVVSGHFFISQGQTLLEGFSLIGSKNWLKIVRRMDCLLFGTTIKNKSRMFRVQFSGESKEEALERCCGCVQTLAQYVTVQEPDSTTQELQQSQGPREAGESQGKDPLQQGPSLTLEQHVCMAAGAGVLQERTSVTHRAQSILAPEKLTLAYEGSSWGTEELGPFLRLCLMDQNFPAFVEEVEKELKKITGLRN

[3] = target: T3, SPO11β, full length (yeast two-hybrid fusion) (mouse) (UniProt Q9WTK8); assay: as above
T3 sequence: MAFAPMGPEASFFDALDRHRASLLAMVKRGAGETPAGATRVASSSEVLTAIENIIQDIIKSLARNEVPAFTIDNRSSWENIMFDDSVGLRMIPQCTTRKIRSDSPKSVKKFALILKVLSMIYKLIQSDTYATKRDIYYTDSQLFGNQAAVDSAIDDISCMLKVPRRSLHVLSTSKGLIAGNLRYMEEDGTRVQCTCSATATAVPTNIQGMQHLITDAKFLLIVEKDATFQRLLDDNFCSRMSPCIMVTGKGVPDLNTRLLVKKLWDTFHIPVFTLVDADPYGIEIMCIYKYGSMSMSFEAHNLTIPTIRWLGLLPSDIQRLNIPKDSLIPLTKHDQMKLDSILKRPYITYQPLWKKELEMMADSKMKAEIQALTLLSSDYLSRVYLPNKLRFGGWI

[4] = target: T2, REC114, full length (yeast two-hybrid fusion) (mouse); assay: two-hybrid; Gal4 DNA-binding domain (pAS2-derived) and activation domain (pGAD-derived) fusions, diploids of AH109 and Y187; growth on medium lacking leucine, tryptophane and histidine with 5 mM 3-amino-1,2,4-triazole; 30 °C, 3 days
[5] = target: T4, REC114 lacking the first 39 amino acids (40–259) (yeast two-hybrid fusion) (mouse) (UniProt Q9CWH4); assay: as above
T4 sequence: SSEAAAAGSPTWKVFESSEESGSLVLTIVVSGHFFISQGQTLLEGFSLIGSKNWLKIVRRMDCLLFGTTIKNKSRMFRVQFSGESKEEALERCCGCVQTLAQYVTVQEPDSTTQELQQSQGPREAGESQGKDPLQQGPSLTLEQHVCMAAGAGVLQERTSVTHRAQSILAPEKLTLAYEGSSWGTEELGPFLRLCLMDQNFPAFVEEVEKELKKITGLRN

[6] = target: T1, Strep-REC114^1–159 (mouse); assay: pull-down; Strep-tagged REC114 held on Strep-Tactin XT resin; wash 100 mM Tris pH 8, 100 mM NaCl, 5 mM β-mercaptoethanol; elution with 50 mM D-biotin; SDS-PAGE, coomassie; both purified
[7] = target: T5, Strep-tagged full-length REC114 (mouse) (UniProt Q9CWH4); assay: SEC; Superose 6 gel filtration; REC114 and MEI4 1-127 run as a preformed complex, how the two were brought together is not told
T5 sequence: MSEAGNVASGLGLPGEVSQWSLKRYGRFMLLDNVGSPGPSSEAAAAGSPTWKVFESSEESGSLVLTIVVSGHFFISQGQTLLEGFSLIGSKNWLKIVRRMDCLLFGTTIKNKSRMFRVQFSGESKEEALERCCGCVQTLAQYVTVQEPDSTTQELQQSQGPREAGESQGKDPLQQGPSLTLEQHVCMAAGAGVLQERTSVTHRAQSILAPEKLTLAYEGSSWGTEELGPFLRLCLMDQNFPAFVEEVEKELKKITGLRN

binding [1]: binds
Molecule: His-MBP-ANKRD31^1808–1857 (from UniProt A0A140LI88 1808-1857) (domain or fragment)

binding [2]: binds | binding [3]: binds | binding [4]: binds | binding [5]: no binding
B1: TOPOVIBL, full length (yeast two-hybrid fusion) (protein, UniProt J3QMY9 1-579)
chain: MERTALAVCEILRYLIIHWKCEAGTAKGTLLDGQLVISIEALRSKHLPDSLHCIITIASTRSVYGGLNFKKFLQEIQPALPRLSAKLALASEEGGRSQDASGIAPCQVTFEVDENSQSLMTDCLVIKHFLRKIIIVHHKLKFSFSVAVNGTLSAETFGAENEPTLRLDNGVTLVVGFQRYVSKPKLNWSEAHCSRIHPVLGHPAPLFIPDAKADTGLLGELTLTPAAALCPSPKGFSSQLCRISSVSIFLYGPLGLPLLSSDQDQPSTAVFRDTSYFIDWKKYNLFMVPNLDLNLDTQSVLPDVNYKAESPEGNQSQNMNAQGPALLLFLFVDFQSDVPVQQAKIWGLHTLLTAHLSAILSESRSTVQQSIQSAVDQVWQLYHHDAKTQQRLQASLSVAVNSIMSVLTGSTRSSFRKTCLQALEAADTQEFGVKLHRIFYDITQHQFLKHCSCDTEQHLTPEKNISAQNTKDQHKNIAQEFPEESIGQAENKRPKRGSPNHGREESRVLGSARDRSPPKSATRDRELTEVSLTARGSQTQAAHGRAQAAEAASPAGGLEDLWLQEVSNLSEWLNPGHRS

binding [4]: no binding
B2: TOPOVIBL W562A, full length (yeast two-hybrid fusion) (protein, UniProt J3QMY9 1-579)
chain: MERTALAVCEILRYLIIHWKCEAGTAKGTLLDGQLVISIEALRSKHLPDSLHCIITIASTRSVYGGLNFKKFLQEIQPALPRLSAKLALASEEGGRSQDASGIAPCQVTFEVDENSQSLMTDCLVIKHFLRKIIIVHHKLKFSFSVAVNGTLSAETFGAENEPTLRLDNGVTLVVGFQRYVSKPKLNWSEAHCSRIHPVLGHPAPLFIPDAKADTGLLGELTLTPAAALCPSPKGFSSQLCRISSVSIFLYGPLGLPLLSSDQDQPSTAVFRDTSYFIDWKKYNLFMVPNLDLNLDTQSVLPDVNYKAESPEGNQSQNMNAQGPALLLFLFVDFQSDVPVQQAKIWGLHTLLTAHLSAILSESRSTVQQSIQSAVDQVWQLYHHDAKTQQRLQASLSVAVNSIMSVLTGSTRSSFRKTCLQALEAADTQEFGVKLHRIFYDITQHQFLKHCSCDTEQHLTPEKNISAQNTKDQHKNIAQEFPEESIGQAENKRPKRGSPNHGREESRVLGSARDRSPPKSATRDRELTEVSLTARGSQTQAAHGRAQAAEAASPAGGLEDLALQEVSNLSEWLNPGHRS

binding [4]: no binding
B3: TOPOVIBL W562G, full length (yeast two-hybrid fusion) (protein, UniProt J3QMY9 1-579)
chain: MERTALAVCEILRYLIIHWKCEAGTAKGTLLDGQLVISIEALRSKHLPDSLHCIITIASTRSVYGGLNFKKFLQEIQPALPRLSAKLALASEEGGRSQDASGIAPCQVTFEVDENSQSLMTDCLVIKHFLRKIIIVHHKLKFSFSVAVNGTLSAETFGAENEPTLRLDNGVTLVVGFQRYVSKPKLNWSEAHCSRIHPVLGHPAPLFIPDAKADTGLLGELTLTPAAALCPSPKGFSSQLCRISSVSIFLYGPLGLPLLSSDQDQPSTAVFRDTSYFIDWKKYNLFMVPNLDLNLDTQSVLPDVNYKAESPEGNQSQNMNAQGPALLLFLFVDFQSDVPVQQAKIWGLHTLLTAHLSAILSESRSTVQQSIQSAVDQVWQLYHHDAKTQQRLQASLSVAVNSIMSVLTGSTRSSFRKTCLQALEAADTQEFGVKLHRIFYDITQHQFLKHCSCDTEQHLTPEKNISAQNTKDQHKNIAQEFPEESIGQAENKRPKRGSPNHGREESRVLGSARDRSPPKSATRDRELTEVSLTARGSQTQAAHGRAQAAEAASPAGGLEDLGLQEVSNLSEWLNPGHRS

binding [6]: no binding
B4: 6xHis-TOPOVIBL^452–579 W562A (domain or fragment, UniProt J3QMY9 452-579)
chain: SCDTEQHLTPEKNISAQNTKDQHKNIAQEFPEESIGQAENKRPKRGSPNHGREESRVLGSARDRSPPKSATRDRELTEVSLTARGSQTQAAHGRAQAAEAASPAGGLEDLALQEVSNLSEWLNPGHRS

binding [6]: no binding
B5: 6xHis-TOPOVIBL^452–579 L569R (domain or fragment, UniProt J3QMY9 452-579)
chain: SCDTEQHLTPEKNISAQNTKDQHKNIAQEFPEESIGQAENKRPKRGSPNHGREESRVLGSARDRSPPKSATRDRELTEVSLTARGSQTQAAHGRAQAAEAASPAGGLEDLWLQEVSNRSEWLNPGHRS

binding [6]: no binding
B6: 6xHis-TOPOVIBL^452–579 W572L (domain or fragment, UniProt J3QMY9 452-579)
chain: SCDTEQHLTPEKNISAQNTKDQHKNIAQEFPEESIGQAENKRPKRGSPNHGREESRVLGSARDRSPPKSATRDRELTEVSLTARGSQTQAAHGRAQAAEAASPAGGLEDLWLQEVSNLSELLNPGHRS

binding [6]: no binding
B7: 6xHis-TOPOVIBL^452–579 W562E (domain or fragment, UniProt J3QMY9 452-579)
chain: SCDTEQHLTPEKNISAQNTKDQHKNIAQEFPEESIGQAENKRPKRGSPNHGREESRVLGSARDRSPPKSATRDRELTEVSLTARGSQTQAAHGRAQAAEAASPAGGLEDLELQEVSNLSEWLNPGHRS

binding [6]: no binding
B8: 6xHis-TOPOVIBL^452–579 V566R (domain or fragment, UniProt J3QMY9 452-579)
chain: SCDTEQHLTPEKNISAQNTKDQHKNIAQEFPEESIGQAENKRPKRGSPNHGREESRVLGSARDRSPPKSATRDRELTEVSLTARGSQTQAAHGRAQAAEAASPAGGLEDLWLQERSNLSEWLNPGHRS

binding [2]: no binding | binding [3]: binds
B9: TOPOVIBL^1–550 (yeast two-hybrid fusion) (domain or fragment, UniProt J3QMY9 1-550)
chain: MERTALAVCEILRYLIIHWKCEAGTAKGTLLDGQLVISIEALRSKHLPDSLHCIITIASTRSVYGGLNFKKFLQEIQPALPRLSAKLALASEEGGRSQDASGIAPCQVTFEVDENSQSLMTDCLVIKHFLRKIIIVHHKLKFSFSVAVNGTLSAETFGAENEPTLRLDNGVTLVVGFQRYVSKPKLNWSEAHCSRIHPVLGHPAPLFIPDAKADTGLLGELTLTPAAALCPSPKGFSSQLCRISSVSIFLYGPLGLPLLSSDQDQPSTAVFRDTSYFIDWKKYNLFMVPNLDLNLDTQSVLPDVNYKAESPEGNQSQNMNAQGPALLLFLFVDFQSDVPVQQAKIWGLHTLLTAHLSAILSESRSTVQQSIQSAVDQVWQLYHHDAKTQQRLQASLSVAVNSIMSVLTGSTRSSFRKTCLQALEAADTQEFGVKLHRIFYDITQHQFLKHCSCDTEQHLTPEKNISAQNTKDQHKNIAQEFPEESIGQAENKRPKRGSPNHGREESRVLGSARDRSPPKSATRDRELTEVSLTARGSQTQAAHGRAQAAE

binding [7]: binds
B10: MEI4^1–127 (domain or fragment, UniProt Q8BRM6 1-127)
chain: MDIQPWYLKTSKLALALAIIHSKPADRSSREYTEYLASLVTQKESTWKSKLEALEAEVLQLRQKLLLSRISSGLFKNGPDVLPTLSDQEPTSSENTLTLMDDSGCVLSNEQRNEPAELSQHFVESTD
